The supplement of paper PMC3334620
The full ranking holds about 33,000 sequences; the median of “E-score (-0.5 to 0.5)” is about -0.021, and the highest 2% start at about 0.32. Some of the results follow.

These sequences were tested against T1, Zap1 (UniProt P47043) (assay: PBM E-score (8-mer binding enrichment) (E-score (-0.5 to 0.5)); higher = stronger / more preferred TF binding; most listed sequences are background and not binding sites). Conditions: protein concentration: 200 nM; construct: GST-full length.
T1 sequence: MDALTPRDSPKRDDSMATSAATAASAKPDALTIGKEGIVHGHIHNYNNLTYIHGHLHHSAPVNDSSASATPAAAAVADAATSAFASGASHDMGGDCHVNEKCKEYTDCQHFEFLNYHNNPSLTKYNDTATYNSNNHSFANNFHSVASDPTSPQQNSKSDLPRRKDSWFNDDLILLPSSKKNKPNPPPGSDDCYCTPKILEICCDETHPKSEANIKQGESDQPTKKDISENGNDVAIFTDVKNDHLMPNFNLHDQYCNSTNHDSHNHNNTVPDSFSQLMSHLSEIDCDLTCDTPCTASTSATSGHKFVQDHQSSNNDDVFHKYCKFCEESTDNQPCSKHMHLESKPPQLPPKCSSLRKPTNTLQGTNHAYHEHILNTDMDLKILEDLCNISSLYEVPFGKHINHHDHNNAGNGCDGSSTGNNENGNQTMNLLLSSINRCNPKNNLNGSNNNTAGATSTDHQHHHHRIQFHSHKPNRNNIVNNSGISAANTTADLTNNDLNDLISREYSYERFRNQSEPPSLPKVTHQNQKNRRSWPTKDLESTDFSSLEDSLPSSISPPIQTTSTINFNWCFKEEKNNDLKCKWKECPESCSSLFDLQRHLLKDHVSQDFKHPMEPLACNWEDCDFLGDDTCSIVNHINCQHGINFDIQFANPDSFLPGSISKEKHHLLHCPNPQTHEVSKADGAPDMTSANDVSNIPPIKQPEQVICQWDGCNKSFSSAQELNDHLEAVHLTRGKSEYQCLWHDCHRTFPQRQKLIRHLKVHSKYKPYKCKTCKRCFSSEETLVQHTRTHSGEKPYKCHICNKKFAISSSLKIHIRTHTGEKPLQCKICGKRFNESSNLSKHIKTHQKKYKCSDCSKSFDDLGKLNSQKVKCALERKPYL
Procedure, shortened: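 Full-length yeast transcription factors or their DNA-binding domains, GST-tagged and expressed with PURExpress, were applied at about 100-200 nM to universal all-10-mer Agilent arrays. These arrays had been made double-stranded by primer extension on fresh or once-stripped slides. Detection used fluorescent anti-GST, normalisation used masliner, and E-scores for ungapped eight-base words pooled with reverse complements came from the Universal PBM Analysis Suite.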

| Sequence | PBM E-score |
| --- | --- |
| TAATCCCA | 0.0297 |
| ATCCGTCG | -0.22 |
| GATTGGAC | -0.162 |
| AGCAACAA | 0.14 |
| ACGGTGAT | -0.0843 |
| CAACGCGC | 0.0876 |
| AATATCTC | -0.0284 |
| ATATTGCG | -0.0735 |
| GTCCTCGA | 0.0326 |
| ACTCATTA | -0.0491 |
| ACAGAGCA | -0.0964 |
| CACGCACG | -0.143 |
| ACAGAGAT | 0.0241 |
| ATTGGGTG | 0.077 |
| ATTTTGCC | -0.0217 |
| CATCGTGG | -0.0787 |
| ACCGTGGG | -0.122 |
| TGCAGTAA | 0.0329 |
| GTCCGGAA | 0.103 |
| ACTAGGCA | -0.178 |
| AGGTCGCA | 0.0967 |
| AGGAGGGA | -0.153 |
| GTTTCAAA | 0.12 |
| GACACCAC | -0.0455 |
| AGATAAAT | -0.0348 |

| Sequence | PBM E-score |
| --- | --- |
| CGTAGTGA | -0.0549 |
| ACGGCAGC | -0.0925 |
| ACATACTC | -0.083 |
| AATGTAGC | -0.0565 |
| GTCACTCA | 0.129 |
| CAGGCGGA | -0.0688 |
| TAAAGAGA | -0.121 |
| ACTGCGTG | -0.165 |
| GCAATCTA | 0.0798 |
| GCAGCTCA | -0.357 |
| TGATAACA | 0.135 |
| CAGCGATC | 0.0433 |
| GGAACGCC | -0.146 |
| ACGGCCTG | -0.0565 |
| CCACCTGA | 0.0282 |
| AAAATCAA | -0.0641 |
| AACACCGC | 0.134 |
| ATCACTAC | 0.108 |
| TGTCTTAA | 0.0721 |
| AGTTCGGA | -0.0683 |
| ATTTGCAA | 0.0656 |
| GTTTAATA | 0.229 |
| AAGCCGAA | -0.0133 |
| ACTGACTA | -0.152 |
| ACCTCTAT | 0.293 |

| Sequence | PBM E-score |
| --- | --- |
| CCGTACCC | 0.275 |
| CGCCGCCA | -0.0727 |
| AAAACCTA | 0.279 |
| AAGTAAAA | 0.0649 |
| AATCCAAG | 0.096 |
| TACCTATA | 0.337 |
| TCCGGACA | 0.00238 |
| GCTCGTAA | 0.12 |
| ACTCGGCA | -0.191 |
| GCCACTAA | 0.112 |
| GCACACAA | -0.00415 |
| AAGTGTCA | -0.175 |
| AAGTGAAC | 0.149 |
| AGGGAGAT | -0.267 |
| CAAATGTG | 0.18 |
| GTGCTCCA | -0.0916 |
| ACAAAAGC | -0.0458 |
| ATGATACC | 0.144 |
| AACGCTGC | -0.0724 |
| AACCACAC | 0.268 |
| TATCAATA | 0.188 |
| AGTAAAAT | 0.198 |
| ATTGGAAA | 0.0719 |
| GCCTAACA | -0.0533 |
| CAATGCAA | 0.0301 |

| Sequence | PBM E-score |
| --- | --- |
| GTACCTTA | 0.265 |
| CGGAGACC | 0.0387 |
| CTGACAGA | -0.0473 |
| CTATTAAG | 0.0621 |
| AGCCGCCA | -0.214 |
| TCACGGAA | 0.00369 |
| AAGCATCC | -0.28 |
| CGGGCTCA | -0.323 |
| GTGTTACA | 0.0219 |
| AAACGCTA | -0.106 |
| GACGACAA | 0.0939 |
| AGGCGATA | -0.157 |
| GCCGTAGC | -0.262 |
| CGTCAGAG | -0.0923 |
| GGGCCTAC | -0.213 |
| CACTGGCG | -0.0169 |
| ATGTCCCG | -0.134 |
| GCACCACC | -0.0172 |
| CCTACAAA | 0.163 |
| ACTGTGCT | -0.0927 |
| AGACCCGG | 0.0904 |
| CGGTGAGA | 0.0498 |
| ACCCGAGA | 0.257 |
| CAATACAC | 0.106 |
| CCGAAGTA | 0.0529 |

| Sequence | PBM E-score |
| --- | --- |
| AGTTTTAT | 0.191 |
| CGCCATAC | 0.0793 |
| TAGAAGAA | -0.0192 |
| AATCAACT | 0.0271 |
| CAAATAAC | 0.322 |
| AACCATTC | 0.247 |
| ACATCGCC | -0.178 |
| CAATGCCA | -0.006 |
| CGTTCTTA | 0.056 |
| CGACATAG | -0.0859 |
| TGGCATAA | 0.173 |
| TCCTGCAA | -0.00346 |
| CGTACGCA | -0.0893 |
| GGGGCGAC | -0.0536 |
| TGACTGCA | -0.134 |
| CTGGAGAC | -0.0459 |
| AAAAATTG | 0.067 |
| AAAGGACG | 0.0187 |
| TGCATCAA | 0.122 |
| ATATAAAG | 0.149 |
| GGCGCATA | -0.124 |
| ACTGCCTC | -0.215 |
| CAAGACCG | 0.0376 |
| CTCTGAAG | -0.225 |
| CATGAGAC | -0.0938 |

| Sequence | PBM E-score |
| --- | --- |
| ATCATCCA | -0.0323 |
| AACCGTCT | 0.0911 |
| TGGCCTAA | -0.155 |
| CACATCGC | -0.148 |
| AAAACGTC | 0.062 |
| AAAGCCAC | 0.00787 |
| AGGCCCGC | -0.216 |
| GATAGTAA | 0.00805 |
| GTCAAAAC | 0.148 |
| TATGTACA | 0.14 |
| CCCACTAG | -0.335 |
| GTGAGCTA | -0.0465 |
| CGTAAGCC | -0.0921 |
| GTAGGTGA | 0.0614 |
| TCAGATGA | 0.0541 |
| AGTAATAG | 0.0318 |
| CTCGACTA | -0.0884 |
| CGATGGCC | 0.0312 |
| AGGGGCCA | 0.183 |
| CAGGGCAC | -0.0382 |
| GCAGTACC | 0.262 |
| GCCACAGC | -0.347 |
| TACACGGA | 0.0784 |
| ATCTGTAG | -0.132 |
| AACTCAAA | 0.138 |

| Sequence | PBM E-score |
| --- | --- |
| AAGCGACG | -0.225 |
| TATCTAAA | 0.0386 |
| AAAAAGCC | 0.191 |
| AGATTGTA | -0.0381 |
| GGTTTCGA | 0.165 |
| ATGGGGAG | -0.108 |
| CCGGTAAG | 0.199 |
| GCGCTCTA | -0.0336 |
| TAACGCGA | 0.0696 |
| GATCGCGA | -0.092 |
| TACGGAGA | -0.02 |
| CTGTACAA | -0.0897 |
| TGACGAAA | 0.111 |
| AGCGAGAA | -0.249 |
| ACGTATCG | -0.0607 |
| CGCAGTGC | -0.113 |
| TCAACAGA | 0.128 |
| ACGTGCTC | -0.398 |
| CAGAAGCA | -0.0791 |
| ATACTAAC | 0.0277 |
| ACGGCTCA | -0.171 |
| CCCGGGCG | -0.0361 |
